In PubChem BioAssay AID894 (National Center for Advancing Translational Sciences (NCATS), 2007):
The campaign covered roughly 150,000 compounds. About 6,500 (4.3%) were called active. Inconclusive means that the source gave no clear call. Such entries were picked first, then a sample of the others. The call rests on the fitted dose curve; in most records, active means well fitted inhibition curve with a large enough effect (not every such curve was filed as active); inconclusive means small, poorly fitted or top-dose-only effect, or another doubt; inactive means no such curve, though single readings can be large or run the other way. No potency is given beside an inconclusive call; the fits are too rough.

The compounds below were run against 15-hydroxyprostaglandin dehydrogenase [NAD(+)] (Homo sapiens) (UniProt P15428) (assay: qHTS Assay for Inhibitors of HPGD (15-Hydroxyprostaglandin Dehydrogenase)). Conditions: purified HPGD, NADH fluorescence kinetic, PGE2 substrate; activity change, negative = inhibition: stronger effect = lower value.
UniProt P15428, sequence (P15428 whole entry, looked up): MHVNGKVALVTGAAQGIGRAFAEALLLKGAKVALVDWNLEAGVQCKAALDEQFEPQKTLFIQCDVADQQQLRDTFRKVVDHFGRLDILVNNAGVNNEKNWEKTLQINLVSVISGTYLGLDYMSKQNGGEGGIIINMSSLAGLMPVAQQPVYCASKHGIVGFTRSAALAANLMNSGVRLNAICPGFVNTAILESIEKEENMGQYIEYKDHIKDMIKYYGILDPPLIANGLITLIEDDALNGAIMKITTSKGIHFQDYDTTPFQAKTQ
In short: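 NADH formation kinetics: reaction with 30 uM PGE2 and 1 mM NAD+ (final), 20 nM enzyme, Tris-HCl pH 8 with Tween 20, after 15 min compound preincubation at room temperature. Fluorescence change, last versus first of five reads.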
On the % scale 0 is the no-effect control and ±100 the full control effect; potency means the concentration at half of the fitted maximal effect; tags describe the fitted curve by direction and shape.

Compound	Potency	activity change, negative = inhibition
Cc1nc2ccc(C(=O)O)cc2c2c1CC(C)S2 (stereo unspecified)	inconclusive [inhibitor, partial curve]	–
COCC(=O)N(C)c1nnc(-c2ccccn2)s1	inconclusive [inhibitor, partial curve]	–
COc1ccc(N2CCN(CC(O)COc3ccccc3[N+](=O)[O-])CC2)cc1 (stereo unspecified)	–	inactive: 0.993%
COc1ccc(C(=O)N/C(=C\c2cccc3ccccc23)C(=O)NCCc2c[nH]c3ccccc23)cc1OC	inconclusive [inhibitor, partial curve]	–
Cc1cccc(C(=O)Nc2nccs2)c1[N+](=O)[O-]	inconclusive [inhibitor, single point]	–
COc1ccc(/C=C2/SC(=O)N(CCC(=O)Nc3ccc(C)cc3)C2=O)cc1OC	–	inactive: -6.22%
CC(=O)N1CCc2cc(Br)cc(S(=O)(=O)NCCN3CCCCC3C)c21 (stereo unspecified)	–	inactive: 1%
CCCCCCCCCCCCCCCC(=O)O[C@H](CC(=O)O)C[N+](C)(C)C	–	inactive: -18.4%
Cc1cccc(CSc2nnc(NC(=O)CSc3nnc(C)s3)s2)c1	inconclusive [inhibitor, partial curve]	–
CCOC(=O)CCSc1nc(C)c2cc(C)ccc2n1	active: 20 µM	–
COC(=O)c1cccc(NC(=O)c2nn(C(C)C)c(=O)c3ccccc23)c1	–	inactive: -8.88%
Cc1cc(C(=O)CSc2nc3ccccc3c(=O)[nH]2)c(C)n1C	active: 22.4 µM	–
O=S(=O)(c1cccs1)N1CCCc2cccc(O)c21	active: 12.6 µM	–
Cn1c(CN2CCCCC2)nc2cc(NS(=O)(=O)c3ccc(Cl)cc3)ccc21	–	inactive: -13.6%
Cc1ccc(C2CC(c3ccco3)=NN2S(C)(=O)=O)cc1 (stereo unspecified)	–	inactive: -5.58%
Cc1sc2nc(CSc3ccc([N+](=O)[O-])c(C(F)(F)F)c3)[nH]c(=O)c2c1C	inconclusive [inhibitor, partial curve]	–
COc1ccc(C2CC(=O)N3CN(c4ccc(C)c(Cl)c4)CSC3=C2C#N)cc1 (stereo unspecified)	inconclusive [inhibitor, single point]	–
O=C(C1CCN(S(=O)(=O)N2CCCCC2)CC1)N1CCCCC1	active: 20 µM	–
CSc1nsc(SC)c1C(=O)NCCNS(=O)(=O)c1ccc(C)cc1	active: 20 µM	–
Cn1cccc1C(=O)N1CCC[C@@]2(CCN(C(=O)Nc3cccc(F)c3)C2)C1	–	inactive: -2.06%
CCn1c2ccccc2c2cc(NC(=O)C(C)Oc3ccc(OC)cc3)ccc21 (stereo unspecified)	inconclusive [inhibitor, single point]	–
Cc1ccc(-c2cc(-c3ccccc3C)[nH]n2)c(O)c1	active: 10 µM	–
O=C(N/N=C/C=C/c1ccco1)c1cccnc1	–	inactive: -17.6%
Cn1c(CC(=O)Nc2ccccc2)nnc1SCC(=O)c1ccccc1	inconclusive [inhibitor, single point]	–

Compound	Potency	activity change, negative = inhibition
Cc1sc(NC(=O)c2oc3ccccc3c2C)c(C#N)c1C	inconclusive [inhibitor, partial curve, poor fit]	–
C=CCn1c(SCC(=O)N2CCCCC2)nc(O)cc1=O	active: 0.316 µM	–
CC1N=C2c3ccccc3N=C(SCc3cc(=O)n4cc(Cl)ccc4n3)N2C1=O (stereo unspecified)	inconclusive [inhibitor, single point]	–
Cc1ccccc1-n1c(-c2csc(C)c2C)n[nH]c1=S	–	inactive: -24.5%
Cc1ccc(-c2nn(C)c(=O)c3ccccc23)cc1S(=O)(=O)NCCN1CCOCC1	inconclusive [inhibitor, single point]	–
CCCCNS(=O)(=O)c1ccc2nc(SCC(=O)c3ccccc3OC)[nH]c2c1	active: 28.2 µM	–
CCCCCCOC(=O)C1(O)CC2OC1(C)n1c3ccccc3c3c4c(c5c6ccccc6n2c5c31)C(=O)NC4 (stereo unspecified)	–	inactive: -11.7%
Cc1csc(NC(=O)c2nc3nc(C)cc(C)n3n2)n1	–	inactive: -15.9%
COc1cccc(Cn2c(N)c(C#N)c3nc4ccccc4nc32)c1OC	inconclusive [inhibitor, partial curve]	–
O=C(CSCC(=O)NC1CCCC1)Nc1ccccc1	inconclusive [inhibitor, partial curve]	–
N#Cc1c(-c2ccccc2)cc(C2CC2)nc1N	inconclusive [inhibitor, full curve]	–
O=C(NCCCN1CCc2ccccc2C1)C1CCN(c2nnc(-n3cccc3)s2)CC1	inconclusive [inhibitor, partial curve]	–
CC(C)(C)c1ccc(OCC(=O)N/N=C/c2ccc(N3CCOCC3)cc2)cc1	inconclusive [inhibitor, partial curve]	–
Cc1ccc(-c2cc(-c3nnc(SCC(=O)NC(C)C(C)C)n3N)c3ccccc3n2)cc1 (stereo unspecified)	inconclusive [inhibitor, partial curve]	–
CC(C)(C)c1nnc2sc(SCC(=O)c3ccccc3)nn2c1=O	–	inactive: -22.1%
CC1=C(C(=O)OCCc2ccccc2)C(c2ccsc2)NC(=O)N1C (stereo unspecified)	–	inactive: -27.1%
C[N+](C)(C)CCOP(=O)(O)OP(=O)([O-])OC[C@H]1O[C@@H](n2ccc(N)nc2=O)[C@H](O)[C@@H]1O	–	inactive: 2.39%
CCC(C)NC(=O)c1ccccc1NC(=O)c1ccc(CSc2ccccc2)cc1 (stereo unspecified)	–	inactive: -5.81%
CN(C)c1ccc(NC(=O)c2ccc(COc3cccc(Cl)c3)o2)cc1	–	inactive: -22.7%
N#Cc1c(N)nc2c(c1-c1cccc(O)c1)CCCCCC2	inconclusive [inhibitor, partial curve, poor fit]	–
O=C(NC1CCCCC1)c1cc([N+](=O)[O-])[nH]n1	inconclusive [inhibitor, partial curve]	–
O=C(Nc1cccc2ccccc12)NC1CCCc2ccccc21 (stereo unspecified)	inconclusive [inhibitor, partial curve]	–
Cc1cc(C)nc(SCC(=O)OCC(=O)Nc2nc3ccccc3s2)n1	inconclusive [inhibitor, partial curve, poor fit]	–
CCN(CC)CCCCn1c(-c2ccccc2)nc2c(N3CCOCC3)nc(C)nc21	inconclusive [inhibitor, partial curve]	–

Compound	Potency	activity change, negative = inhibition
COc1ccccc1CN(Cc1cc2cc(C)ccc2[nH]c1=O)Cc1nnnn1Cc1ccco1	inconclusive [inhibitor, partial curve]	–
Cc1cccc(-n2c(O)c(C=NC3CCS(=O)(=O)C3)c3ccccc3c2=O)c1 (stereo unspecified)	–	inactive: -28.4%
N#C/C(C(=O)N1CCOCC1)=C1/SC(Cc2ccc(F)cc2)C(=O)N1c1ccccc1 (stereo unspecified)	–	inactive: -13.3%
CC1(C)CCCN(C(=O)c2ccc3c(c2NCCO)C(=O)c2ccccc2C3=O)C1	active: 15.8 µM	–
COc1cccc(-n2nnnc2SCC(=O)Nc2cccc(NC(C)=O)c2)c1	–	inactive: -21.1%
c1ccc(-n2ncc3c(NCc4ccccn4)ncnc32)cc1	inconclusive [inhibitor, partial curve]	–
Cc1ccc2cc(CN(C(=O)c3ccco3)c3ccccc3)c(=O)[nH]c2c1	inconclusive [inhibitor, partial curve]	–
Cc1cc(C2=CC(C)(c3cc(C)oc3C)Nc3nc(C(F)(F)F)nn32)c(C)o1 (stereo unspecified)	inconclusive [inhibitor, single point]	–
OC1(c2cccc(C(F)(F)F)c2)CCN(c2ncnc3c2[nH]c2ccc(F)cc23)CC1	inconclusive [inhibitor, partial curve]	–
Fc1ccc(N2N=C(c3cccs3)CC2c2ccco2)c(F)c1 (stereo unspecified)	inconclusive [inhibitor, partial curve]	–
COc1ccccc1NC(=S)NCCSc1ccc(C)cc1	–	inactive: -5.16%
COc1ccc(C(C)=O)cc1COC(=O)CNC(=O)c1ccc(F)cc1	inconclusive [inhibitor, partial curve]	–
Nc1nc(CSc2nnnn2-c2ccc(Cl)cc2)nc(N2CCOCC2)n1	–	inactive: -6.34%
CC(CCc1ccccc1)NC(=O)c1ccc(Br)o1 (stereo unspecified)	active: 15.8 µM	–
C=CCn1c(NC(=O)c2ccccc2Cl)c(C#N)c2nc3ccccc3nc21	inconclusive [inhibitor, partial curve]	–
CCOC(=O)N(C)OC(=O)Nc1ccc(Cl)c(Cl)c1	inconclusive [inhibitor, single point]	–
O=C1C2C3C=CC(C3)C2C(=O)N1c1ccc(Cc2ccncc2)cc1 (stereo unspecified)	inconclusive [inhibitor, partial curve]	–
O=c1c2cc(Br)cc(Br)c2oc2nc3n(c(=O)c12)CCCS3	inconclusive [inhibitor, partial curve]	–
CCCCN(C)C(=O)CCCCn1c(=O)[nH]c2cc(OCC)c(OCC)cc2c1=O	inconclusive [inhibitor, single point]	–
O=C(CSc1nnc(SCc2cccc3ccccc23)s1)c1ccc2c(c1)OCO2	inconclusive [inhibitor, partial curve]	–
CC1CCN(C(=S)Nc2ccc3nc4n(c(=O)c3c2)CCCCC4)CC1	active: 12.6 µM	–
CC(C)Cc1nc(N2CCN(C(=O)C(C)C)CC2)c(C#N)c2c1CCC2	inconclusive [inhibitor, partial curve]	–
COC(=O)c1cc(C(=O)OC)cc(N2C(=O)CC(Sc3nc(C)cc(C)n3)C2=O)c1 (stereo unspecified)	–	inactive: -9.01%
